# Measurements: paper PMC6748027
# Amino acid sequences for entries named in this document (tags omitted).
# UniProt O04294: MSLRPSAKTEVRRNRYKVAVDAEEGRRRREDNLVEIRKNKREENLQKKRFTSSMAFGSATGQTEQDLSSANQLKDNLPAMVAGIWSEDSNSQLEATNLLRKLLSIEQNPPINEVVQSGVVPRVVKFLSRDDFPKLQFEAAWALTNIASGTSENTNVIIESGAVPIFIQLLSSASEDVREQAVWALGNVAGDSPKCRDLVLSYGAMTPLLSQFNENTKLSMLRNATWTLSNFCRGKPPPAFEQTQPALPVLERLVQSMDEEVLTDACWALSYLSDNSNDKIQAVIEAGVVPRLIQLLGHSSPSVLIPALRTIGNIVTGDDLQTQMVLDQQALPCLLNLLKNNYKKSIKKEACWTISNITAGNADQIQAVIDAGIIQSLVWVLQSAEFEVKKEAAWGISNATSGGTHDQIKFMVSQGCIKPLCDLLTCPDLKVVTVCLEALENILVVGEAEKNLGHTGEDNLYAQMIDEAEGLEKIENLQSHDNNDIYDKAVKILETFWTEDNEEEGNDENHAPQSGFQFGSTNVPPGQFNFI
# UniProt O80480: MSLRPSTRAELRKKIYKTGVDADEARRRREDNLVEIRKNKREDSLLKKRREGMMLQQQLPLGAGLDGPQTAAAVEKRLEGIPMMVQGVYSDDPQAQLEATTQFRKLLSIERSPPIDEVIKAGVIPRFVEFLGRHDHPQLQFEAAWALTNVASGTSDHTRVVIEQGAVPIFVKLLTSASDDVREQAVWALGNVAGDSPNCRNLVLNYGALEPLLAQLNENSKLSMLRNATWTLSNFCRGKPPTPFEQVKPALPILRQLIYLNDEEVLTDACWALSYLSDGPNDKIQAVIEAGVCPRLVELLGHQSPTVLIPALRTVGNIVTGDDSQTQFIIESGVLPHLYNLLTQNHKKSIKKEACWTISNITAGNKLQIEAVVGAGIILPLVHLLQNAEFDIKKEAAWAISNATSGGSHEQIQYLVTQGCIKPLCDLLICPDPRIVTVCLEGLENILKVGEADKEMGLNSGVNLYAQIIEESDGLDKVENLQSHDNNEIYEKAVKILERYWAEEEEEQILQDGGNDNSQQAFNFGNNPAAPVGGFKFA
# These are yes or no findings as the source states them, for the method shown. Binding seen in cells or lysates may run through a third protein. Some binding calls cover weakened binding; strength is not graded here. For part of these data: Where a sequence is shown, tags or fusion partners need not be part of it.
# B1: nYFP-IYO (Arabidopsis MINIYO fused to the N-terminal half of YFP) (protein, UniProt Q8GYU3 1-1465)
# chain: MEQSSGRVNPEQPNNVLASLVGSIVEKGISENKPPSKPLPPRPSLLSFPVARHRSHGPHLAPVGSSIAQPKDYNDDQEEEEAEERFMNADSIAAFAKPLQRKEKKDMDLGRWKDMVSGDDPASTHVPQQSRKLKIIETRPPYVASADAATTSSNTLLAARASDQREFVSDKAPFIKNLGTKERVPLNASPPLAVSNGLGTRHASSSLESDIDVENHAKLQTMSPDEIAEAQAELLDKMDPALLSILKKRGEAKLKKRKHSVQGVSITDETAKNSRTEGHFVTPKVMAIPKEKSVVQKPGIAQGFVWDAWTERVEAARDLRFSFDGNVVEEDVVSPAETGGKWSGVESAAERDFLRTEGDPGAAGYTIKEAIALARSVIPGQRCLALHLLASVLDKALNKLCQSRIGYAREEKDKSTDWEAIWAYALGPEPELVLALRMALDDNHASVVIACVKVIQCLLSCSLNENFFNILENMGPHGKDIFTASVFRSKPEIDLGFLRGCYWKYSAKPSNIVAFREEILDDGTEDTDTIQKDVFVAGQDVAAGLVRMDILPRIYHLLETEPTAALEDSIISVTIAIARHSPKCTTAILKYPKFVQTIVKRFQLNKRMDVLSSQINSVRLLKVLARYDQSTCMEFVKNGTFNAVTWHLFQFTSSLDSWVKLGKQNCKLSSTLMVEQLRFWKVCIHSGCCVSRFPELFPALCLWLSCPSFEKLREKNLISEFTSVSNEAYLVLEAFAETLPNMYSQNIPRNESGTWDWSYVSPMIDSALSWITLAPQLLKWEKGIESVSVSTTTLLWLYSGVMRTISKVLEKISAEGEEEPLPWLPEFVPKIGLAIIKHKLLSFSVADVSRFGKDSSRCSSFMEYLCFLRERSQDDELALASVNCLHGLTRTIVSIQNLIESARSKMKAPHQVSISTGDESVLANGILAESLAELTSVSCSFRDSVSSEWPIVQSIELHKRGGLAPGVGLGWGASGGGFWSTRVLLAQAGAGLLSLFLNISLSDSQNDQGSVGFMDKVNSALAMCLIAGPRDYLLVERAFEYVLRPHALEHLACCIKSNKKNISFEWECSEGDYHRMSSMLASHFRHRWLQQKGRSIAEEGVSGVRKGTVGLETIHEDGEMSNSSTQDKKSDSSTIEWAHQRMPLPPHWFLSAISAVHSGKTSTGPPESTELLEVAKAGVFFLAGLESSSGFGSLPSPVVSVPLVWKFHALSTVLLVGMDIIEDKNTRNLYNYLQELYGQFLDEARLNHRDTELLRFKSDIHENYSTFLEMVVEQYAAVSYGDVVYGRQVSVYLHQCVEHSVRLSAWTVLSNARVLELLPSLDKCLGEADGYLEPVEENEAVLEAYLKSWTCGALDRAATRGSVAYTLVVHHFSSLVFCNQAKDKVSLRNKIVKTLVRDLSRKRHREGMMLDLLRYKKGSANAMEEEVIAAETEKRMEVLKEGCEGNSTLLLELEKLKSAALCGRR
# B2: IYO-RFP (protein, UniProt Q8GYU3 1-1465)
# chain: B1 chain
# B3: nYFP-IYO_(ΔNLSAB) (protein, UniProt Q8GYU3)
# chain: MEQSSGRVNPEQPNNVLASLVGSIVEKGISENKPPSKPLPPRPSLLSFPVARHRSHGPHLAPVGSSIAQPKDYNDDQEEEEAEERFMNADSIAAFAKPLQRKEKKDMDLGRWKDMVSGDDPASTHVPQQSRKLKIIETRPPYVASADAATTSSNTLLAARASDQREFVSDKAPFIKNLGTKERVPLNASPPLAVSNGLGTRHASSSLESDIDVENHAKLQTMSPDEIAEAQAELLDKMDPALLSILKKRGEAKSVQGVSITDETAKNSRTEGHFVTPKVMAIPKEKSVVQKPGIAQGFVWDAWTERVEAARDLRFSFDGNVVEEDVVSPAETGGKWSGVESAAERDFLRTEGDPGAAGYTIKEAIALARSVIPGQRCLALHLLASVLDKALNKLCQSRIGYAREEKDKSTDWEAIWAYALGPEPELVLALRMALDDNHASVVIACVKVIQCLLSCSLNENFFNILENMGPHGKDIFTASVFRSKPEIDLGFLRGCYWKYSAKPSNIVAFREEILDDGTEDTDTIQKDVFVAGQDVAAGLVRMDILPRIYHLLETEPTAALEDSIISVTIAIARHSPKCTTAILKYPKFVQTIVKRFQLNKRMDVLSSQINSVRLLKVLARYDQSTCMEFVKNGTFNAVTWHLFQFTSSLDSWVKLGKQNCKLSSTLMVEQLRFWKVCIHSGCCVSRFPELFPALCLWLSCPSFEKLREKNLISEFTSVSNEAYLVLEAFAETLPNMYSQNIPRNESGTWDWSYVSPMIDSALSWITLAPQLLKWEKGIESVSVSTTTLLWLYSGVMRTISKVLEKISAEGEEEPLPWLPEFVPKIGLAIIKHKLLSFSVADVSRFGKDSSRCSSFMEYLCFLRERSQDDELALASVNCLHGLTRTIVSIQNLIESARSKMKAPHQVSISTGDESVLANGILAESLAELTSVSCSFRDSVSSEWPIVQSIELHKRGGLAPGVGLGWGASGGGFWSTRVLLAQAGAGLLSLFLNISLSDSQNDQGSVGFMDKVNSALAMCLIAGPRDYLLVERAFEYVLRPHALEHLACCIKSNKKNISFEWECSEGDYHRMSSMLASHFRHRWLQQKGRSIAEEGVSGVRKGTVGLETIHEDGEMSNSSTQDKKSDSSTIEWAHQRMPLPPHWFLSAISAVHSGKTSTGPPESTELLEVAKAGVFFLAGLESSSGFGSLPSPVVSVPLVWKFHALSTVLLVGMDIIEDKNTRNLYNYLQELYGQFLDEARLNHRDTELLRFKSDIHENYSTFLEMVVEQYAAVSYGDVVYGRQVSVYLHQCVEHSVRLSAWTVLSNARVLELLPSLDKCLGEADGYLEPVEENEAVLEAYLKSWTCGALDRAATRGSVAYTLVVHHFSSLVFCNQAKDKVSLRNKIVKTLVRDLSGSANAMEEEVIAAETEKRMEVLKEGCEGNSTLLLELEKLKSAALCGRR
# Assays:
# [1] = target: T1, IMPA6-cYFP (Arabidopsis thaliana) (UniProt Q9FWY7); experiment: split reporter; BiFC: nYFP and cYFP fusions co-expressed transiently in N. benthamiana leaves; confocal microscopy two days after infiltration
# T1 sequence: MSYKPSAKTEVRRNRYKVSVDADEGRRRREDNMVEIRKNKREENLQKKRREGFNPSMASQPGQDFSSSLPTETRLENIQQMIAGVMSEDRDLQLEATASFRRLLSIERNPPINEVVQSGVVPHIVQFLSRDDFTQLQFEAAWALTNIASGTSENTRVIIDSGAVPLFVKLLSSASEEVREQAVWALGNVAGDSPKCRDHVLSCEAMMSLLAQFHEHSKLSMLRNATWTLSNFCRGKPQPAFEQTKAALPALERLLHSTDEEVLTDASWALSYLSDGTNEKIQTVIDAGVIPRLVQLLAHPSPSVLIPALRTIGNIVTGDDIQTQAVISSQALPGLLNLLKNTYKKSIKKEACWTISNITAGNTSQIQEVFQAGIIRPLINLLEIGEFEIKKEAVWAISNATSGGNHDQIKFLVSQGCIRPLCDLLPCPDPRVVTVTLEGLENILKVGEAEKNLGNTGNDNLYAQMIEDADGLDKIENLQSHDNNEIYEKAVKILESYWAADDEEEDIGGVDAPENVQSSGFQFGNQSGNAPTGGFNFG
# [2] = target: IMPA3-cYFP (Arabidopsis thaliana) (UniProt O04294); experiment: as above
# [3] = target: IMPA4-cYFP (Arabidopsis thaliana) (UniProt O80480); experiment: as above
# [4] = target: GFP-IMPA4 (Arabidopsis thaliana) (UniProt O80480); experiment: co-IP; extracts of N. benthamiana leaves infiltrated with the constructs; GFP-Trap agarose beads, 4 °C, 3 h; 50 mM Tris-HCl pH 7.5, 150 mM NaCl, 2 mM DTT, washes with 0.5% TX-100; immunoblot with anti-GFP and anti-RFP
# [5] = target: T2, GFP-IMPA6 (Arabidopsis thaliana) (UniProt Q9FWY7); experiment: as above
# T2 sequence: T1 sequence
binder,measurement,setting,value
B1,binding,[1],no binding
same,binding,[2],no binding
same,binding,[3],binds
B2,binding,[4],binds
same,binding,[5],no binding
B3,binding,[3],no binding
